The values below come from publication PMC12820563.

This is one part of the list. The list includes weakly bound sequences.

This assay has as its target T1, MBP-FoxP3dN (UniProt Q99JB6).
T1 sequence: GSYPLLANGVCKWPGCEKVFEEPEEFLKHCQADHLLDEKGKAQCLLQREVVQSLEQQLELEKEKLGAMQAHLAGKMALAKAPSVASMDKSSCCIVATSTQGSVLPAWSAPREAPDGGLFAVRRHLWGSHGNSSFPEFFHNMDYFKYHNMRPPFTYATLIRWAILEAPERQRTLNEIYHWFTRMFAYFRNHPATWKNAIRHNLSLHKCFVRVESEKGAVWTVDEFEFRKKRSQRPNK
The assay can be described thus: PD-seq (MBP pull-down with sequencing). To be noted: 20 mM Tris-HCl pH 7.5, 100 mM NaCl, 1.5 mM MgCl2, 0.4 uM protein, 0.1 uM dsDNA library, 30 min, room temperature, amylose pull-down; high values mean tight binding; double strand, one strand shown.
Take “GATGATTGTTCTCCCAGCTGATGAATTCTATGCCTCGAGTAAACAAATTTTCCTAATCTTTCTGTTCAAGCGCCATCTAC”: the binding signal (RPM ratio (pull-down/input)) is 0.668.
The same measure for “GATGATTGTTCTCCCAGCTGATGAATTGTGGGTCTCGAGTAAACAAATTTTCCTAATCTTTCTGTTCAAGCGCCATCTAC”: 1.25.
For “GATGATTGTTCTCCCAGCTGATGAATTGCTAGAGTCGAGTAAACAAATTTTCCTAATCTTTCTGTTCAAGCGCCATCTAC”, the binding signal (RPM ratio (pull-down/input)) was determined as 0.44.
The figure for “GATGATTGTTCTCCCAGCTGATGAATTCCTGTTGTCGAGTAAACAAATTTTCCTAATCTTTCTGTTCAAGCGCCATCTAC” is 1.27; for “GATGATTGTTCTCCCAGCTGATGAATTTGAATGTTCGAGTAAACAAATTTTCCTAATCTTTCTGTTCAAGCGCCATCTAC” it is 1.46; for “GATGATTGTTCTCCCAGCTGATGAATTCGCCGTATCGAGTAAACAAATTTTCCTAATCTTTCTGTTCAAGCGCCATCTAC” it is 0.592.
The same measure for “GATGATTGTTCTCCCAGCTGATGAATTTGTCCCATCGAGTAAACAAATTTTCCTAATCTTTCTGTTCAAGCGCCATCTAC”: 2.38.
Take “GATGATTGTTCTCCCAGCTGATGAATTAATCACGTCGAGTAAACAAATTTTCCTAATCTTTCTGTTCAAGCGCCATCTAC”: the binding signal (RPM ratio (pull-down/input)) came to 0.577.
The figure for “GATGATTGTTCTCCCAGCTGATGAATTGTAATATTCGAGTAAACAAATTTTCCTAATCTTTCTGTTCAAGCGCCATCTAC” is 1.5.
For the sequence “GATGATTGTTCTCCCAGCTGATGAATTCCTTCTATCGAGTAAACAAATTTTCCTAATCTTTCTGTTCAAGCGCCATCTAC”, the binding signal (RPM ratio (pull-down/input)) was found to be 0.281.
With “GATGATTGTTCTCCCAGCTGATGAATTGTTCTAGTCGAGTAAACAAATTTTCCTAATCTTTCTGTTCAAGCGCCATCTAC”, the binding signal (RPM ratio (pull-down/input)) amounted to 0.321.
The figure for “GATGATTGTTCTCCCAGCTGATGAATTGTGCAGGTCGAGTAAACAAATTTTCCTAATCTTTCTGTTCAAGCGCCATCTAC” is 1.71; for “GATGATTGTTCTCCCAGCTGATGAATTCAAATCTTCGAGTAAACAAATTTTCCTAATCTTTCTGTTCAAGCGCCATCTAC” it is 0.237; for “GATGATTGTTCTCCCAGCTGATGAATTGCTATGATCGAGTAAACAAATTTTCCTAATCTTTCTGTTCAAGCGCCATCTAC” it is 0.879.
The same measure for “GATGATTGTTCTCCCAGCTGATGAATTAATTCTCTCGAGTAAACAAATTTTCCTAATCTTTCTGTTCAAGCGCCATCTAC”: 0.307; for “GATGATTGTTCTCCCAGCTGATGAATTTGTGATCTCGAGTAAACAAATTTTCCTAATCTTTCTGTTCAAGCGCCATCTAC”: 4.83; for “GATGATTGTTCTCCCAGCTGATGAATTCTGCACGTCGAGTAAACAAATTTTCCTAATCTTTCTGTTCAAGCGCCATCTAC”: 2.7.
The same measure for “GATGATTGTTCTCCCAGCTGATGAATTCAAAATGTCGAGTAAACAAATTTTCCTAATCTTTCTGTTCAAGCGCCATCTAC”: 0.316; for “GATGATTGTTCTCCCAGCTGATGAATTCATTCACTCGAGTAAACAAATTTTCCTAATCTTTCTGTTCAAGCGCCATCTAC”: 0.354.
Turning to “GATGATTGTTCTCCCAGCTGATGAATTTGATGGGTCGAGTAAACAAATTTTCCTAATCTTTCTGTTCAAGCGCCATCTAC”, the binding signal (RPM ratio (pull-down/input)) worked out at 3.22.
The figure for “GATGATTGTTCTCCCAGCTGATGAATTACGTGTCTCGAGTAAACAAATTTTCCTAATCTTTCTGTTCAAGCGCCATCTAC” is 1.3.
Regarding “GATGATTGTTCTCCCAGCTGATGAATTGTATTGTTCGAGTAAACAAATTTTCCTAATCTTTCTGTTCAAGCGCCATCTAC”, the binding signal (RPM ratio (pull-down/input)) is 6.04.
“GATGATTGTTCTCCCAGCTGATGAATTTCTACAATCGAGTAAACAAATTTTCCTAATCTTTCTGTTCAAGCGCCATCTAC”: the binding signal (RPM ratio (pull-down/input)) stood at 0.363.
As for “GATGATTGTTCTCCCAGCTGATGAATTGTTGGCTTCGAGTAAACAAATTTTCCTAATCTTTCTGTTCAAGCGCCATCTAC”, the binding signal (RPM ratio (pull-down/input)) was found to be 2.27.
The same measure for “GATGATTGTTCTCCCAGCTGATGAATTTCGGAGATCGAGTAAACAAATTTTCCTAATCTTTCTGTTCAAGCGCCATCTAC”: 0.228; for “GATGATTGTTCTCCCAGCTGATGAATTGCATGTCTCGAGTAAACAAATTTTCCTAATCTTTCTGTTCAAGCGCCATCTAC”: 1.91; for “GATGATTGTTCTCCCAGCTGATGAATTCAATTCTTCGAGTAAACAAATTTTCCTAATCTTTCTGTTCAAGCGCCATCTAC”: 0.609.
In the case of “GATGATTGTTCTCCCAGCTGATGAATTTTTGGGCTCGAGTAAACAAATTTTCCTAATCTTTCTGTTCAAGCGCCATCTAC”, the binding signal (RPM ratio (pull-down/input)) amounted to 0.259.
In the case of “GATGATTGTTCTCCCAGCTGATGAATTCGAGTATTCGAGTAAACAAATTTTCCTAATCTTTCTGTTCAAGCGCCATCTAC”, the binding signal (RPM ratio (pull-down/input)) worked out at 0.977.
For the sequence “GATGATTGTTCTCCCAGCTGATGAATTTGAGTGCTCGAGTAAACAAATTTTCCTAATCTTTCTGTTCAAGCGCCATCTAC”, the binding signal (RPM ratio (pull-down/input)) worked out at 0.987.
Consider “GATGATTGTTCTCCCAGCTGATGAATTTTTCTCATCGAGTAAACAAATTTTCCTAATCTTTCTGTTCAAGCGCCATCTAC”, for which the binding signal (RPM ratio (pull-down/input)) was 0.274.
The figure for “GATGATTGTTCTCCCAGCTGATGAATTTTGCCGCTCGAGTAAACAAATTTTCCTAATCTTTCTGTTCAAGCGCCATCTAC” is 2.85.
Take “GATGATTGTTCTCCCAGCTGATGAATTCCACCTTTCGAGTAAACAAATTTTCCTAATCTTTCTGTTCAAGCGCCATCTAC”: the binding signal (RPM ratio (pull-down/input)) amounted to 0.35.
For “GATGATTGTTCTCCCAGCTGATGAATTGCTGCAATCGAGTAAACAAATTTTCCTAATCTTTCTGTTCAAGCGCCATCTAC”, the binding signal (RPM ratio (pull-down/input)) stood at 3.27.
In the case of “GATGATTGTTCTCCCAGCTGATGAATTTGCCAAGTCGAGTAAACAAATTTTCCTAATCTTTCTGTTCAAGCGCCATCTAC”, the binding signal (RPM ratio (pull-down/input)) worked out at 0.252.
The same measure for “GATGATTGTTCTCCCAGCTGATGAATTGTTAGTGTCGAGTAAACAAATTTTCCTAATCTTTCTGTTCAAGCGCCATCTAC”: 4.19; for “GATGATTGTTCTCCCAGCTGATGAATTTTTCGTCTCGAGTAAACAAATTTTCCTAATCTTTCTGTTCAAGCGCCATCTAC”: 0.258.
The figure for “GATGATTGTTCTCCCAGCTGATGAATTCCCTTAGTCGAGTAAACAAATTTTCCTAATCTTTCTGTTCAAGCGCCATCTAC” is 0.242.
In the case of “GATGATTGTTCTCCCAGCTGATGAATTTAATGCCTCGAGTAAACAAATTTTCCTAATCTTTCTGTTCAAGCGCCATCTAC”, the binding signal (RPM ratio (pull-down/input)) amounted to 1.91.
The same measure for “GATGATTGTTCTCCCAGCTGATGAATTCGATGAATCGAGTAAACAAATTTTCCTAATCTTTCTGTTCAAGCGCCATCTAC”: 0.288.
